Experimental data as given in PMC6212790.
Some of the results follow. At the low end of the ranking, values are background and their order means little.

molecular target: T1, GST-Rok (full length) (UniProt O34857); experiment: protein binding microarray; conditions: Rok is a gene silencer of Bacillus subtilis; high values mean tight binding; most listed sequences are background and not binding sites; double strand, one strand shown;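 note: rank score from −0.5 (least bound) to 0.5 (best bound)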
T1 sequence: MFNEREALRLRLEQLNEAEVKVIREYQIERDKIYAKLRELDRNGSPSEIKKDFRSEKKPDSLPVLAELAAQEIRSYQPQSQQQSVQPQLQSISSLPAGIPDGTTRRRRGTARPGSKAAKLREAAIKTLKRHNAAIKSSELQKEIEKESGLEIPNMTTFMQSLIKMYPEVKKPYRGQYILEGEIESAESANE

Row | Sequence | binding signal [E-score]
1 | GACGCGTA | 0.0146
2 | CCAAAATC | -0.00798
3 | ATATGCTA | 0.31
4 | ATCATCTG | 0.0384
5 | CGCTAGCG | 0.0246
6 | CACAATGG | -0.0776
7 | CCGTCCGA | -0.32
8 | GATGAATA | 0.157
9 | AATGGGCC | -0.254
10 | ACTCGAAA | 0.213
11 | CTCGTCCA | -0.225
12 | GACACAAA | 0.0864
13 | CGCTCGCA | -0.0784
14 | ATACTGAA | 0.103
15 | GTGCAGAA | -0.091
16 | GAATGCCA | -0.00946
17 | GGTTACCA | -0.248
18 | GGACGCTA | 0.000145
19 | CCTATAAG | 0.142
20 | GAACCAGA | -0.24
21 | AAGTAAGG | -0.0987
22 | ATATCTCA | 0.224
23 | GGTTACTA | 0.163
24 | CCCACGGA | -0.263
25 | CAAACCTA | 0.145

Row | Sequence | binding signal [E-score]
26 | GTACGTAC | 0.275
27 | GGCCCGAA | 0.0559
28 | TGACTGAA | -0.0324
29 | ACTTCATC | -0.0486
30 | GACCTCCA | -0.306
31 | AAGGCGTA | -0.0795
32 | ATATGACA | 0.154
33 | CCTTGGGA | -0.194
34 | AGGAGATG | -0.192
35 | ATCGGGTC | -0.199
36 | CAGTCGAA | -0.24
37 | CCTTTTTC | -0.168
38 | TCCACCCA | -0.192
39 | AACCGCCT | -0.293
40 | GTTTGTAA | 0.172
41 | GATATATC | 0.39
42 | ACGAGGTA | -0.176
43 | ACCAATGA | 0.0701
44 | CTGACAGC | -0.227
45 | AGGGTACC | -0.352
46 | CGGGTTGC | -0.297
47 | AATCACGC | 0.0329
48 | CGGCCCAG | -0.282
49 | AGCGGACC | -0.174
50 | AAGGTAGG | 0.133

Row | Sequence | binding signal [E-score]
51 | AAATGCTC | -0.142
52 | CATGTAGC | 0.384
53 | CTCGAGGC | -0.235
54 | CTCACTGC | 0.0486
55 | ATCCGTGA | -0.0763
56 | GGCCATCA | -0.282
57 | CGGGAAAG | -0.23
58 | CCCGTTCA | -0.154
59 | GATAATCC | 0.101
60 | GCCTAAAC | -0.17
61 | AAGAGCCT | -0.224
62 | CGCTACCG | 0.0836
63 | AGAAGTGA | 0.0234
64 | AGAGGGAT | -0.228
65 | AGTGCGGA | 0.012
66 | ACTGTTGC | 0.175
67 | GATAGACC | 0.144
68 | CCAACATC | 0.022
69 | CCAGGCCC | -0.477
70 | AGAACTGC | -0.189
71 | TATTGAAA | 0.0126
72 | ATCTAGAA | 0.264
73 | ACAATTAC | 0.292
74 | CGATTCGA | 0.0554
75 | CGATATTC | 0.194

Row | Sequence | binding signal [E-score]
76 | AATTTGGT | 0.177
77 | ACCACATA | 0.22
78 | GGTTTACA | 0.13
79 | CAGGGGTC | -0.378
80 | TATGGGAA | 0.00644
81 | ACAAGGCC | -0.285
82 | ATCGCAAG | 0.0159
83 | CTGTCAAC | -0.0772
84 | CGGCCTCC | -0.47
85 | CGCACCTC | -0.211
86 | CTAATATC | 0.255
87 | TACCCTCA | -0.148
88 | CCTACCCG | -0.129
89 | CCCGTGGC | -0.218
90 | ATCTCAAT | 0.125
91 | ATGAAATC | 0.029
92 | ATTTCCCC | -0.123
93 | AAGGGATT | -0.133
94 | AGTGATGA | 0.0696
95 | TAGGTAAA | 0.222
96 | ACCCCAAT | -0.313
97 | CCAGTCAA | 0.0257
98 | GACGGATA | -0.0532
99 | ACTGACGG | -0.117
100 | AACGCTTA | -0.0523

Row | Sequence | binding signal [E-score]
101 | GCTTATTA | 0.163
102 | ACGACGCC | -0.224
103 | AATTGCCA | 0.106
104 | CTACTGAA | 0.0898
105 | CTTTCACC | -0.069
106 | CTGATTGA | 0.0462
107 | CTTGGACA | -0.0937
108 | TAGATTGA | 0.243
109 | AAGTACGC | 0.0101
110 | AAGGTTGT | -0.00326
111 | TAGCGTCA | 0.0319
112 | ACGTAGCC | -0.0791
113 | ACCAGCAC | -0.049
114 | GCCTCCCA | -0.31
115 | GTCTCAAC | 0.0182
116 | TCGTGCCA | -0.0596
117 | ACTGTACA | 0.183
118 | CAATCTAA | 0.172
119 | GAGGCAGA | -0.244
120 | AGACTGGG | -0.158
121 | AGCACATC | 0.0392
122 | ACCGTAGT | 0.0987
123 | ACTTGTGA | -0.0118
124 | AGGCGGTG | -0.118
125 | ACCGAATA | 0.165

Row | Sequence | binding signal [E-score]
126 | CACCCCGC | -0.315
127 | CGGGAACG | -0.331
128 | ACCGACGG | -0.204
129 | CGGGGAAA | -0.0502
130 | ATGAAAGG | -0.0999
131 | GGGCATGA | -0.239
132 | AACATCCC | -0.196
133 | AGCTGGCA | -0.193
134 | TCGTTCCA | -0.0352
135 | GGAAAGAA | -0.0486
136 | AGGGAGTA | -0.13
137 | ATCCCACG | -0.0391
138 | CAATAGTA | 0.341
139 | CACATGGA | 0.0382
140 | AATAGAGA | 0.239
141 | CTAGTGCA | 0.183
142 | AGTGAATA | 0.0769
143 | CCAGAGCA | -0.238
144 | ATTAGAAC | 0.0761
145 | CAAAAGGA | -0.277
146 | CTCGTTTC | -0.07
147 | ATTGTCGA | 0.0279
148 | CGCCTTAG | -0.197
149 | TGCTGCAA | -0.149
150 | AAAGTACG | 0.22

Row | Sequence | binding signal [E-score]
151 | CCTAAAAC | -0.0415
152 | ACGATTAT | 0.0621
153 | ACGTTAGG | 0.149
154 | CTCGAGAG | -0.153
155 | ACGTTAGT | 0.208
156 | GATACAAC | 0.172
157 | AGCAGTAC | 0.152
158 | CGTGACAG | -0.207
159 | TCGGACAA | -0.163
160 | GGTAGGCA | -0.0246
161 | TAATACCA | 0.295
162 | ACCTGATC | 0.132
163 | CCTCGGCC | -0.355
164 | ATGGCTCC | -0.167
165 | GGCGTCCC | -0.312
166 | CGGCTAAA | -0.169
167 | AAAAGCAC | -0.209
168 | CAGACAGA | 0.055
169 | TCATGCGA | 0.123
170 | CATTAGGG | -0.267
171 | AGATCGGC | -0.0118
172 | AAGGGGAG | -0.306
